# Source: the supplement of paper PMC11417369
# The list shows a part of the results.
# Tested on: PF3D7_0420300 AP2 domain 1 (GST-tagged)
# Assay: gcPBM binding intensity (ln(normalized median fluorescence intensity)); higher = stronger DNA binding
# Procedure, shortened: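 GST-tagged P. falciparum DNA-binding domains produced in E. coli were incubated for 1 h on an Agilent 4 × 180k array of primer-extended double-stranded 36-bp intergenic genomic probes with negative controls. Binding intensity is the highest Masliner-normalised natural-log median intensity across replicate spots of either probe orientation, with bound protein detected by Alexa488 anti-GST antibody at 488 nm.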
row,Sequence,gcPBM binding intensity (ln)
1,GTAAAACAGATTTACAGTACACATGTGTTATGTTTT [XGTACX_site2933],9.5
2,TTTTTATATTTTATTATTTTTTTTATATAAAAAATT [CACACA_negctrl_site601],9.05
3,TTTATATATAAATAATGTACAAAAAATTTTAAAAAG [XGTACX_site7990],9.07
4,ATAAAAATATTTGAATGTACTTATAAGATATATATA [XGTACX_site4257],9.13
5,GATGTATTCATACATGCACACGTACATATTTAAATA [CACACA_site9299],9.34
6,TATTTTAATTTTTGTTGTACGCAAATGTGAGGGCAT [XGTACX_site4663],9.17
7,TAAACCAAAAAAAGTAGTACAAATATTATAAAAAAA [XGTACX_site8497],9.4
8,AAATCGTGCACGGACACATGCAGTAGCCGAGAATTA [TGCATGCA_site733],9.26
9,TGTTTATTTATTTGTGTGCACTCAGATTATATTATA [GTGCAC_site9510],9.53
10,GTTCATAAATTAAACACACACACACGGCTGGATACC [CACACA_site7545],10.1
11,AGGTAGAAAAAAGACACACACATTAGATATTTATAT [CACACA_site6313],9.9
12,AGTATATATACACAAGGGGAATACATATACAAAATT [TGCATGCA_negctrl_site244],9.49
13,TGGGTAATACATAATACACACATGTATATGTCGCAT [CACACA_site1125],9.49
14,AAATTTATATAATATTGTACATTAAAAATTATATAT [XGTACX_site8009],9.11
15,TTTTTAAAAAAGATAAGCGAAAGAATTAATTTTTAA [GTGCAC_negctrl_site197],8.84
16,TATGTATAAATATATGCACACATATATATATTTATA [CACACA_site9150],9.25
17,AAGTTGTATATTGATTGTACTTGTTTAGGGTTATAG [XGTACX_site2953],9.42
18,ATATATATAATAAACACACACATATACATATATGTA [CACACA_site3462],9.75
19,AGGTAAAATATACATTGTACATATAATTAATTTATT [XGTACX_site626],9.27
20,TATATATATATAATGTGTACACAAATATATATTATA [XGTACX_site8786],9.22
21,TATTAACACTTTATAGAAACAAAAAAATAAGCAAAA [XGTACX_negctrl_site295],9.42
22,TTTGAATTTTTTAACACACACATGTGTGGATATATA [CACACA_site6872],9.65
23,ATTATTACACAACGTTGTACATTTCAATATTTTTAT [XGTACX_site5096],9.52

row,Sequence,gcPBM binding intensity (ln)
1,AAAATAATATATAATTGTACTTTTTTTTTATATATA [XGTACX_site6093],9.19
2,TCCTCTTCAATATATATATATTATAAATAAATAAAT [CACACA_negctrl_site1756],8.95
3,TTTCTTTTTTTTTAATGTACTTTTTTTATAAAAGGT [XGTACX_site5688],9.03
4,TTTTTTCTTAAAATTTGTACATAGTGCAATTTTTTT [XGTACX_site5509],8.97
5,TGTACATATATATATATAATAATAGTTATGTTTATT [CACACA_negctrl_site1474],9.29
6,TTTTTTTATAGCTAAACACACATAAGAATATATGTT [CACACA_site1099],9.09
7,AATATAAATTAATTTACACACTAAAAAATATTTATA [CACACA_site7728],9.3
8,ACATACTTTAATATATGTACATAAGAAAAAAAAAAA [XGTACX_site2991],9.23
9,TATAAGAATGACAAGTGTACATATCAAATATATTAG [XGTACX_site7113],9.27
10,TATTTTTTATATTTATTTATTTAAAGGAGCTTTTCT [GTGCAC_negctrl_site293],8.96
11,TATACTAAAAAATACACATGCACATACAATATATAT [TGCATGCA_site1016],9.77
12,TTTATTTTGTAGTGTACACATATATATATATATATA [CACACA_site5843],9.34
13,TGAGTATTTTTTTAATGTACTTATATTAAAAGGAAA [XGTACX_site6286],8.78
14,TATATTTTTTTTCTAGTGCATATTATTAATTAAGTT,9.26
15,AAAATATTATTTTGTTGTACATATAAAATTTTAAGC [XGTACX_site1866],8.99
16,TACAAAATAAGACATGCATGTTATACATATATATTT [TGCATGCA_site321],9.4
17,ATATAAAATAGACACGCACACAAAAAAAAAAAAAAA [CACACA_site3522],9.5
18,CTATAATATAGGTATACACACATATTATAGAATATT [CACACA_site7696],9.47
19,TATGTCAAAAAATAATGTACAAAAAAATTAACATAA [XGTACX_site5463],9.23
20,TATATATGGAAAAGGTGTACATTCAATATATATATA [XGTACX_site3167],9.17
21,ATAAATCATAAGGAGAGTACATAAATAAAATAATCA [XGTACX_site8825],9.35
22,CTCAATATATTTGATTTACACACTTACAATGTATAT [CACACA_site8982],9.46
23,TATTAAAGATACTCGGTATAAATAAATTTTAATGTG [XGTACX_negctrl_site239],9.15

row,Sequence,gcPBM binding intensity (ln)
1,AAGTGGCATATAAGTAAAAAATATATACAAGTATAT [GTGCAC_negctrl_site427],9.31
2,ATGCTTATTATTTATTGTACTGAATAAATATATCTG [XGTACX_site4483],9.36
3,ACAACATGCACACGCACACACAAAAAAAGCATGCAT [CACACA_site6185],9.82
4,TTATTTCTACCTTTTTGTACACATTATTATGAAACC [XGTACX_site5325],9.41
5,TATAAAAAATATAATTGTACATAAAGGTTAAAATGT [XGTACX_site6138],9.47
6,AAACAAAAAAGAAACACACACTAATTAAATTTTCTT [CACACA_site4746],9.77
7,TAAATTAATAAAAAGTGTACATAATATACATATATA [XGTACX_site8604],9.29
8,TACAATACCGTACAGGTGCAACTAGCCAAAAAAAAG,9.46
9,ATAATTAAAAAAGGAATATATATATATATATATATA [GTGCAC_negctrl_site343],8.95
10,CGTATGACATAATATTGTACTTTTGATATACATCAT [XGTACX_site7366],9.13
11,TTTAATAATATTTAGGTGCTATATATTATATGTATA,9.12
12,AAAAAAAAAAAAAACACACAAATCATAAATAAATAT [CACACA_site6362],9.56
13,AAAAAAAAAATTGAAAGTACAAATATGTATTATATA [XGTACX_site2455],9.21
14,TAATAGTATATAAAAAGTACATAATAAGATATGAAA [XGTACX_site1000],9.38
15,ATTATGTGCCAATACACACACACATATATATATATA [CACACA_site468],9.9
16,TAAAATATGTCATGTGGTACATGAATAGCTTTTATT [XGTACX_site3809],9.25
17,AAGGAATAGGCATATACACACAGGTACAGATATATA [CACACA_site4402],9.7
18,TTTAAATATTACATATGTACTTATAAATATATATAT [XGTACX_site1284],9.13
19,TTTTTTTAAATATACACACACATTTATACAGATATA [CACACA_site5811],9.65
20,TTTCTAAAAATAAGAACACACACATATAAGCATATA [CACACA_site8714],9.71
21,ATATCATTTTCTAGCACACACATTGTTATTACCTTG [CACACA_site902],9.86
22,AGTCTGAATAAAATTACACACATATACAGATATATA [CACACA_site5054],9.43
23,TATGTATAATTTCATTGTACTTTTGATATTATCATA [XGTACX_site280],9.12

row,Sequence,gcPBM binding intensity (ln)
1,TATTAGAACATATATGCATGCAATAGATATTCCAAT [TGCATGCA_site297],9.1
2,ACTGCGTTTTTACACGCGCACTGCAATGAACAATAT,9.14
3,TATGTAACAAAAAAAAGTACACATATATATAGTGTA [XGTACX_site7772],9.48
4,AAGATAATCACAAAATGTACAGGAAATATGACAACC [XGTACX_site3607],9.71
5,AAGAAAAAGGAACGGAAAAACAAACAAGGGGCCCAA [TGCATGCA_negctrl_site4],9.75
6,AATGGTATAAACAATACACACATAATATATATATTG [CACACA_site4997],9.66
7,TTTTCTAAATTAATAATACACACTTGCTAAAATCAT [CACACA_site3207],9.11
8,ATTTAAGCATTATTTTGTACGAAAATAAAAAAATGA [XGTACX_site6958],9.01
9,ATATAAAAAAATAAAACACACACATATATATTATAT [CACACA_site8909],10.1
10,AGTGGTGTTAAATGTTGTACGATTTTGTGTTATTCG [XGTACX_site178],9.49
11,TTTTTGTTATATAAAGTGCAGTGACAAGCAGTTTAA,9.04
12,TATAATGCTCTTCTTTGTACATATTATGATTATATT [XGTACX_site2332],9.51
13,ATATATATATAATATAGTACGTATAATATATGAATC [XGTACX_site4385],9.48
14,AAAGGAAAATGTGTAAAAAGAAATGCTAGGTATATA [GTGCAC_negctrl_site699],9.61
15,TAATGCCATAATACGTGTACTTAATATATTAGAACA [XGTACX_site5809],9.2
16,TACATACATACATACACACATACATATGTATATATA [CACACA_site2480],9.59
17,CTCAAATGTTATTGTAGTACCTAAAAAATATATTCT [XGTACX_site1970],9.05
18,GTTGGTAGGCGGTACGGTACACGTAAAGTTTTTCTT [XGTACX_site7706],9.34
19,ATAAATGACAAATTAACACACATATATTATATATAT [CACACA_site3899],9.53
20,ACCATATAAATAAACACACACACACGGATATAAATA [CACACA_site7157],10.1
